From the supplement of paper PMC9151546
Many values rest on one well or one pass, so single values are uncertain.

Key:
CHO-K1 [1] = experiment: micronucleus frequency (% of nucleated events); higher = more micronuclei (genotoxic)
CHO-K1 [2] = experiment: hypodiploid nuclei frequency (% of nucleated events); higher = more hypodiploid events (aneugenic)
Experimental: (§1)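 Flow-cytometric in vitro micronucleus assay (Litron MicroFlow) in CHO-K1 cells in 96-well plates, 19 concentrations (4.5-200 µM, n=1 per concentration). Without S9, cells were exposed for 24 h and sampled at 48 h. With Aroclor 1254-induced rat liver S9, cells were exposed for 3-4 h and sampled at 27-28 h. Read-outs are %MN and %hypodiploid nuclei relative to nucleated events, and relative survival as the nuclei-to-bead ratio versus the 1% DMSO vehicle control (x100).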

CHO-K1 [3] = experiment: relative survival (nuclei to bead ratio vs DMSO control) (% of vehicle control); higher = more surviving cells
Experimental: as §1
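For hypodiploid nuclei frequency (% of nucleated events) in this document: hypodiploid nuclei gated on a flow cytometer with 488 nm excitation after SYTOX Green staining, cultures at 37 °C, positive controls vinblastine without S9 and cyclophosphamide with S9.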
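For micronucleus frequency (% of nucleated events) in this document: cells lysed with nuclei stained by SYTOX Green, then micronucleus-gated events counted against nucleated events by flow cytometry with 488 nm excitation.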
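For relative survival (nuclei to bead ratio vs DMSO control) in this document: Lysed-cell nuclei stained with SYTOX Green and counted against counting beads by flow cytometry at 488 nm excitation, with vinblastine (no S9) and cyclophosphamide (plus S9) as positive controls.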

CCCCC=O [Pentanal]
Settings | hypodiploid nuclei frequency, CHO-K1 [2] [%] | micronucleus frequency, CHO-K1 [1] [%] | relative survival, CHO-K1 [3]
concentration: 4.46 (µM), S9 metabolic activation: with S9, exposure time: 3-4 hours | 0.3 | 1.9 | 148
concentration: 4.46 (µM), S9 metabolic activation: without S9, exposure time: 24 hours | 0.76 | 2.84 | 101
concentration: 5.57 (µM), S9 metabolic activation: with S9, exposure time: 3-4 hours | 0.24 | 1.9 | 159
concentration: 5.57 (µM), S9 metabolic activation: without S9, exposure time: 24 hours | 0.62 | 2.12 | 91.4
concentration: 6.97 (µM), S9 metabolic activation: with S9, exposure time: 3-4 hours | 0.28 | 1.88 | 146
concentration: 6.97 (µM), S9 metabolic activation: without S9, exposure time: 24 hours | 0.6 | 1.82 | 115
concentration: 8.71 (µM), S9 metabolic activation: with S9, exposure time: 3-4 hours | 0.42 | 2.08 | 138
concentration: 8.71 (µM), S9 metabolic activation: without S9, exposure time: 24 hours | 0.6 | 2.04 | 101
concentration: 10.9 (µM), S9 metabolic activation: with S9, exposure time: 3-4 hours | 0.32 | 2.04 | 120
concentration: 10.9 (µM), S9 metabolic activation: without S9, exposure time: 24 hours | 0.62 | 3.12 | 96.3
concentration: 13.6 (µM), S9 metabolic activation: with S9, exposure time: 3-4 hours | 0.32 | 2.16 | 128
concentration: 13.6 (µM), S9 metabolic activation: without S9, exposure time: 24 hours | 0.54 | 1.56 | 111
concentration: 17 (µM), S9 metabolic activation: with S9, exposure time: 3-4 hours | 0.38 | 1.7 | 117
concentration: 17 (µM), S9 metabolic activation: without S9, exposure time: 24 hours | 0.74 | 2.08 | 85.8
concentration: 21.3 (µM), S9 metabolic activation: with S9, exposure time: 3-4 hours | 0.22 | 1.5 | 103
concentration: 21.3 (µM), S9 metabolic activation: without S9, exposure time: 24 hours | 0.86 | 2.34 | 95.8
concentration: 26.6 (µM), S9 metabolic activation: with S9, exposure time: 3-4 hours | 0.4 | 2.5 | 148
concentration: 26.6 (µM), S9 metabolic activation: without S9, exposure time: 24 hours | 0.56 | 2.66 | 118
concentration: 33.2 (µM), S9 metabolic activation: with S9, exposure time: 3-4 hours | 0.4 | 1.88 | 133
concentration: 33.2 (µM), S9 metabolic activation: without S9, exposure time: 24 hours | 0.6 | 2.28 | 112
concentration: 41.5 (µM), S9 metabolic activation: with S9, exposure time: 3-4 hours | 0.28 | 1.44 | 112
concentration: 41.5 (µM), S9 metabolic activation: without S9, exposure time: 24 hours | 0.44 | 2.3 | 94.4
concentration: 51.9 (µM), S9 metabolic activation: with S9, exposure time: 3-4 hours | 0.3 | 1.22 | 118
concentration: 51.9 (µM), S9 metabolic activation: without S9, exposure time: 24 hours | 0.94 | 2.46 | 106
concentration: 64.9 (µM), S9 metabolic activation: with S9, exposure time: 3-4 hours | 0.22 | 1.56 | 128
concentration: 64.9 (µM), S9 metabolic activation: without S9, exposure time: 24 hours | 0.66 | 2.34 | 107
concentration: 81.1 (µM), S9 metabolic activation: with S9, exposure time: 3-4 hours | 0.18 | 0.98 | 106
concentration: 81.1 (µM), S9 metabolic activation: without S9, exposure time: 24 hours | 0.78 | 2.94 | 107
concentration: 101 (µM), S9 metabolic activation: with S9, exposure time: 3-4 hours | 0.14 | 0.9 | 109
concentration: 101 (µM), S9 metabolic activation: without S9, exposure time: 24 hours | 0.96 | 3.66 | 117
concentration: 127 (µM), S9 metabolic activation: with S9, exposure time: 3-4 hours | 0.22 | 1.24 | 97.7
concentration: 127 (µM), S9 metabolic activation: without S9, exposure time: 24 hours | 0.9 | 2.52 | 96.3
concentration: 158 (µM), S9 metabolic activation: with S9, exposure time: 3-4 hours | 0.12 | 1.06 | 90.7
concentration: 158 (µM), S9 metabolic activation: without S9, exposure time: 24 hours | 0.88 | 2.88 | 91.8
concentration: 198 (µM), S9 metabolic activation: with S9, exposure time: 3-4 hours | 0.48 | 2.46 | 103
concentration: 198 (µM), S9 metabolic activation: without S9, exposure time: 24 hours | 1.4 | 2.16 | 89.3
